± gives the standard deviation. Only a part is listed here, and it is no random draw.

The values that follow come from the supplement of paper PMC10338343.

The first assay relates to MIWI (PIWIL1) piRISC loaded with L1MC piRNA (30 nt). Kind of assay: pre-steady-state target cleavage rate (min^-1); MIWI and MILI are mouse PIWI proteins and EfPiwi is from a freshwater sponge; tags in brackets are library labels; higher = faster piRNA-guided slicing of the target. The settings on record: guide: L1MC piRNA 5'p-UAACUAAAUACUAUGCAAGCUGUAGGUCCU; auxiliary factor: 500 nM mouse GTSF1. Here is the method: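 Cleave-'n-Seq: a library of target RNAs (target site embedded in constant flanks, ACAGCATTCCGCGTTAGTGATATCCG... 5' flank; DNA-blocked outside the site) at 0.1 nM was incubated with 1 nM active mouse MILI or MIWI piRISC (synthetic 5'-monophosphorylated piRNA guide) with or without 500 nM mouse GTSF1 at 33 °C for 1 min to 16 h. Uncleaved targets were sequenced and normalised to non-target controls, and the pooled three trials were fitted to a burst-and-steady-state model to give the pre-steady-state cleavage rate (min^-1; k3 is constrained to at most 1e-4). Sequence is the target site only; target names encode pairing extent (gX:gY) and contiguous / 1-mismatch / 2-mismatch / bulge geometry. Fits with R² ≤ 0 are excluded.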
Take ACGGACCUACAGCUUGCAUAGUAUUUAGUUA: the “pre-steady-state target cleavage rate” value is 1.24 ± 0.072.
UGGACCUACAGCUUGGUUAGUAUUUUCAAA: the “pre-steady-state target cleavage rate” value came out at 0.00506 ± 0.0032.
In the case of UCGACCUACAGCUUGUAUAGUAUUUAGUUA, the “pre-steady-state target cleavage rate” value came out at 1.7 ± 0.074.
As to UCCUGGAUGACCUUGCUUAGUAUUUAGUUA, the “pre-steady-state target cleavage rate” value is 0.0168 ± 0.0048.
Take UCCACGUACAGCUUGCAUAGUAAUUAGUUA: the “pre-steady-state target cleavage rate” value worked out at 0.779 ± 0.034.
In the case of UCCUGGAUGAGCUUGUAUAGUAUUUAGUUA, the “pre-steady-state target cleavage rate” value turned out to be 0.931 ± 0.036.
Same read-out and setting: under UCCACCUACAGCUUGCUAGUAUUUAGUUA stands 0.0583 ± 0.014; under AGGACCUACAGCUUGCAUAGUAUAAUGUUA, 0.437 ± 0.051.
Same read-out and setting: under UCGACCUACAGCUUGCAUAGUAUUUGAGUUA stands 0.59 ± 0.045; under UCCUCCUACAGCUUGCAUACUUUUUAGUUA, 0.0511 ± 0.0091.
As for UCCUGGAUCAGCAUGCAUAGUAUUAAGUUA, the “pre-steady-state target cleavage rate” value was 0.449 ± 0.034.
Take AGGACCUUCAGCUUGCAUAGAAUUUAGUUA: the “pre-steady-state target cleavage rate” value came out at 0.428 ± 0.033.
For UCCUCCUACAGCUUGCAUAGUAUCUUAGUUA, the “pre-steady-state target cleavage rate” value came to 0.96 ± 0.045.
Regarding UCCUCCUACAGCUUGCAUAGUUAUUAGUUA, the “pre-steady-state target cleavage rate” value is 0.182 ± 0.018.
As to AGGACCUACAGCUUGCAAAGUAUUAAGUUA, the “pre-steady-state target cleavage rate” value is 0.668 ± 0.053.
On the same count and under the same terms, under UCCUGCUACAGCUUGCAUAGUAUUAACUUA stands 0.0939 ± 0.012; under UCCUGGUACAGCUUGCGAUAGUAUUUAGUUA, 0.0288 ± 0.0081; under UCCUGCUACAGCAUGCAUACUAUUUAGUUA, 0.507 ± 0.038.
Turning to UGGACCUACAGCUUGCAUAGUAUAUUCAAA, the “pre-steady-state target cleavage rate” value is 0.231 ± 0.047.
Still for that read-out and setting: under UCCUGGAUGUCCUGCAUAGUAUUUAGUUA stands 0.0445 ± 0.011.
Same read-out and setting: under UCCUGCUACAGCUUGCAUAGUAUGUUAGUUA stands 0.213 ± 0.034; under AGGACCUACGGCUUGCAUAGUAUUUAGUUA, 1.27 ± 0.077.

The assay is the same for the next values; noted with them: guide: L1MC piRNA 5'p-UAACUAAAUACUAUGCAAGCUGUAGGUCCU; auxiliary factor: none (no GTSF1).
With ACGGACCUACAGCUUGCAUAGUAUUUAGUUA, the “pre-steady-state target cleavage rate” value worked out at 0.0796 ± 0.016.
As for UCGACCUACAGCUUGUAUAGUAUUUAGUUA, the “pre-steady-state target cleavage rate” value is 0.0725 ± 0.015.
Take UCCUGGAUGACCUUGCUUAGUAUUUAGUUA: the “pre-steady-state target cleavage rate” value came out at 0.0045 ± 0.0018.
UCCACGUACAGCUUGCAUAGUAAUUAGUUA: the “pre-steady-state target cleavage rate” value was found to be 0.0232 ± 0.0048.
Still for that read-out and setting: under UCCUGGAUGAGCUUGUAUAGUAUUUAGUUA stands 0.0448 ± 0.01.
Turning to AGGACCUACAGCUUGCAUAGUAUAAUGUUA, the “pre-steady-state target cleavage rate” value stood at 0.0308 ± 0.0064.
For UCGACCUACAGCUUGCAUAGUAUUUGAGUUA, the “pre-steady-state target cleavage rate” value was 0.0387 ± 0.0088.
Regarding UCCUCCUACAGCUUGCAUACUUUUUAGUUA, the “pre-steady-state target cleavage rate” value was 0.00662 ± 0.0016.
As for UCCUGGAUCAGCAUGCAUAGUAUUAAGUUA, the “pre-steady-state target cleavage rate” value amounted to 0.00727 ± 0.0026.
With AGGACCUUCAGCUUGCAUAGAAUUUAGUUA, the “pre-steady-state target cleavage rate” value was determined as 0.0276 ± 0.0061.
In the case of UCCUCCUACAGCUUGCAUAGUAUCUUAGUUA, the “pre-steady-state target cleavage rate” value stood at 0.016 ± 0.0044.
On to UCCUCCUACAGCUUGCAUAGUUAUUAGUUA, for which the “pre-steady-state target cleavage rate” value amounted to 0.0115 ± 0.0017.
With AGGACCUACAGCUUGCAAAGUAUUAAGUUA, the “pre-steady-state target cleavage rate” value is 0.0106 ± 0.0028.
Same read-out and setting: under UCCUGCUACAGCUUGCAUAGUAUUAACUUA stands 0.00607 ± 0.0022; under UCCUGGUACAGCUUGCGAUAGUAUUUAGUUA, 0.00377 ± 0.0034.
Regarding UCCUGCUACAGCAUGCAUACUAUUUAGUUA, the “pre-steady-state target cleavage rate” value was 0.0165 ± 0.0037.
Turning to UCCUGGAUGUCCUGCAUAGUAUUUAGUUA, the “pre-steady-state target cleavage rate” value turned out to be 0.0046 ± 0.0019.
For the sequence UCCUGCUACAGCUUGCAUAGUAUGUUAGUUA, the “pre-steady-state target cleavage rate” value came to 0.00451 ± 0.0022.
Consider AGGACCUACGGCUUGCAUAGUAUUUAGUUA, for which the “pre-steady-state target cleavage rate” value is 0.0872 ± 0.017.
